The results in this text go back to ChEMBL document CHEMBL5308541, “MAIP: An Open-Source Tool to Enrich High-Throughput Screening Output and Identify Novel, Druglike Molecules with Antimalarial Activity” (ACS Med Chem Lett, 2023).

Out of some 150,000 compounds screened, about 540 (0.36%) showed an effect of 50% or more. Some of the results follow.

In this assay the test system is Plasmodium falciparum. Briefly: Primary screen in NF54 nanoGlo assay, in single point, at 2uM, 72h; a lower Z score goes with more inhibition. Format: functional, Erythrocyte. As to conditions: timepoint 72 hour.
The term % Inhibition denotes the change of the read-out against control, counted positive when it falls. For the compound `COc1ccccc1-c1noc([C@H](C)Nc2nc(-c3cccs3)nc3ccccc23)n1`, the “% Inhibition” value was -12% and the Z score is reported as 2.08.
For `c1ccc(CCN2CCC(N3CCCN(Cc4cccs4)CC3)CC2)cc1`, in that order: 2% and -0.29.
Take `CC1(C)CN(C(=O)NCc2coc3ccccc23)C[C@@]2(CCOC2)O1`: the “% Inhibition” value is given as -1% and the Z score came out at 0.22.
For `CCN(C1CCN(C(C)c2ccccc2)C1)S(=O)(=O)c1ccc(OC)c2ncccc12` (stereo unspecified), in that order: 3% and -0.56.
Consider `c1csc(N2CCC(NCc3ccc(OC4CCCCC4)nc3)CC2)n1`, for which the “% Inhibition” value is on record as 2% and the Z score was -0.23.
For `O=C1c2cccc3cccc(c23)C(=O)N1CCc1nc2ccccc2s1`, in that order: -1% and 0.09.
As for `CCN(C)c1ccnc(NCc2cc(-c3cccc(OC)c3)no2)n1`, the “% Inhibition” value is given as -12% and the Z score turned out to be 2.15.
For `CCCOCC(=O)N1CCCCC[C@H](Nc2cc(C)nc(-c3ccncc3)n2)C1`, in that order: -9% and 1.59.
For `N#Cc1c(NCCCN2CCN(c3ccc(F)cc3)CC2)ncnc1N1CCOCC1`, in that order: -5% and 0.87.
For `C[C@H](NC(=O)N1CCc2ncncc2C1)c1cc(F)ccc1N(C)C`, in that order: 2% and -0.35.
As for `O=C(Nc1nnc[nH]1)c1cc(NCc2ccccc2)nc2ccccc12`, the “% Inhibition” value is given as 11% and the Z score is given as -2.43.
For `COc1ccc2cc(C(=O)NC3CCN(c4cc(-c5cccs5)[nH]n4)CC3)[nH]c2c1`, in that order: 0% and 0.03.
For `Cc1nc(NCCc2c[nH]c3c(C)cccc23)cc(C2CCNCC2)n1`, in that order: 13% and -2.49.
For the compound `Cc1cc(N2CCC(NCCCN3CCCc4ccccc43)CC2)nc(N)n1`, the “% Inhibition” value is listed as 53% and the Z score is -8.02.
For `Cn1ncnc1CCNC1CCN(c2cccc(-c3cc4ccccc4[nH]3)c2)CC1`, in that order: 16% and -2.83.
For `CC(=O)N1CCC[C@@](O)(C(=O)NCCc2ccc(Cl)c(Cl)c2)C1`, in that order: 4% and -0.63.
For `c1ccc(-c2ncn(Cc3ccco3)c2-c2ccc(-n3cncn3)cc2)cc1`, in that order: -7% and 1.13.
For the compound `CCC(=O)N1CC[C@H](Nc2cc(C)nc3ccccc23)C1`, the “% Inhibition” value is given as -8% and the Z score came to 1.36.
For `CC(CC1CCN(C(=O)OC(C)(C)C)CC1)NCC1(C)CCOC1` (stereo unspecified), in that order: -7% and 1.27.
For `COc1cccc(-c2cc(C(=O)N(CCC(=O)N3CCN(C4CCCC4)CC3)CC(C)C)no2)c1`, in that order: -3% and 0.61.
On to `CCS(=O)(=O)c1ccc(N2CCC(NC(=O)c3cc4c(C)cc(F)cc4[nH]3)CC2)cc1`, for which the “% Inhibition” value is reported as -6% and the Z score came to 0.98.
For `Clc1cnc(N[C@@H]2CCOC2)nc1N[C@@H]1CCOC1`, in that order: -7% and 1.16.
Regarding `CNc1cc(N2CCC[C@@H]2CNc2cnc(C(=O)OC(C)(C)C)cn2)ncn1`, the “% Inhibition” value is -4% and the Z score is listed as 0.66.
For `CN(C)c1ccc(CNCc2cnc(N)nc2N)cc1`, in that order: 1% and -0.28.
For `CCOC(=O)c1csc(C2CCN(Cc3nnc(C)n3C)CC2)n1`, in that order: 6% and -0.85.
For `CN(CC1CCN(Cc2ccccc2)CC1)c1nccc2ccncc12`, in that order: 19% and -2.87.
As for `Cc1cnc(C2CCN(c3ccnc(N(C)C)n3)CC2)s1`, the “% Inhibition” value worked out at 0% and the Z score is recorded as -0.04.
For `CC1(C)Cc2n[nH]cc2CN(C(=O)NC[C@H](Cc2ccccc2)C(F)(F)F)C1`, in that order: 1% and -0.2.
For `Cc1c(CN[C@H]2CCCN(CCCc3ccccc3)C2)c2ccccc2n1CC(N)=O`, in that order: 4% and -0.79.
For `CCc1cccc(N[C@@H]2C(=O)NCC23CCOCC3)c1`, in that order: -2% and 0.34.
With `N#Cc1nccc(N2CC[C@@](c3nc(-c4ccncc4)no3)(C(F)(F)F)C2)n1`, the “% Inhibition” value is on record as -16% and the Z score was 3.45.
For `CN(C)c1nc(NCCN2CCC[C@H](CO)C2)ncc1F`, in that order: -2% and 0.36.
For `Cc1cccc(Cl)c1CNC(=O)c1ccc(-c2cc(-c3ccccc3)n[nH]2)cc1`, in that order: -1% and 0.23.
For `COCCn1cc(CCC(=O)N(C)CC2CCCN3CCCCC23)c2ccccc21` (stereo unspecified), in that order: -8% and 1.39.
`CN(CCCNc1cc(OC2CCOCC2)ncn1)CC(F)(F)F`: the “% Inhibition” value is on record as -5% and the Z score is given as 0.89.
For `CCCCS(=O)(=O)NCc1c(C)noc1C`, in that order: -3% and 0.53.
For `OCCCNCc1cccc(-c2cccc(-c3cc[nH]n3)c2)c1`, in that order: -6% and 1.02.
In the case of `O=C(c1ccc(N2CCC(NCc3cc(-c4ccccc4)on3)CC2)cc1)N1CCOCC1`, the “% Inhibition” value is -17% and the Z score turned out to be 3.04.
Consider `CN(C)C1CCN(C(C)(C)CNC2CCN3CCCC3C2)CC1` (stereo unspecified), for which the “% Inhibition” value turned out to be 0% and the Z score is -0.03.
For `COc1ccc(C(=O)NCC2C3CCC4(CN(Cc5ccncc5)CC24)O3)cc1OC` (stereo unspecified), in that order: -3% and 0.62.
With `CN1CCC(NC[C@@]2(COc3ccc(C(F)(F)F)cn3)C[C@@H](O)[C@@H](O)C2)CC1`, the “% Inhibition” value is given as 6% and the Z score is reported as -0.95.
For `Cc1c(-c2cc(C(=O)NC3CCC3NC3CCCCCC3)no2)cnn1C` (stereo unspecified), in that order: -7% and 1.08.
For `Cc1cc(N2CCN(C3CCCCC3)CC2)n2nc(C(F)(F)F)c(-c3ccccc3Cl)c2n1`, in that order: -5% and 0.94.
With `CN1CCC(Nc2ccccc2NC(=O)c2ccnc(N3CCOCC3)n2)CC1`, the “% Inhibition” value is on record as -8% and the Z score is 1.83.
For `Cc1nc(NC[C@H]2CCOC3(CCC3)C2)c2cc[nH]c2n1`, in that order: -7% and 1.07.
As to `COc1nccc(N2CCC(CC(=O)N3CCN(CC(=O)N4CCCC4)CC3)CC2)n1`, the “% Inhibition” value was -3% and the Z score was 0.46.
With `N[C@H]1C[C@@H](c2nnc(COc3cccc4c3CCCC4)n2C2CC2)C1`, the “% Inhibition” value is recorded as -2% and the Z score was 0.48.
As for `Cn1cc(CC(=O)N2CCC(Oc3cccc4cccnc34)CC2)c2ccccc21`, the “% Inhibition” value is on record as -4% and the Z score is 0.73.
Turning to `O=C(Nc1nccc2ccncc12)[C@H]1CC[C@H](Nc2ncccn2)CC1`, the “% Inhibition” value is -10% and the Z score was 1.99.
For `CC1CCN(C2CCC(N[C@H]3CCCNCC3)CC2)CC1` (stereo partly specified), in that order: 8% and -1.37.
On to `Cc1cccc2[nH]cc(CCNS(=O)(=O)N(C)[C@@H](C)C3CC3)c12`, for which the “% Inhibition” value is -2% and the Z score turned out to be 0.39.
For `COCc1noc(-c2ccc(N(C)CCN3CCCC[C@@H]3C)nc2)n1`, in that order: -5% and 1.18.
For `Cc1oc(C(C)(C)C)cc1C(=O)N1CCN(c2cnn(C)c2)C(=O)C1`, in that order: 1% and -0.15.
In the case of `Oc1cc(CN2CC(O)C(F)C2)nc2ccc(Cl)cc12` (stereo unspecified), the “% Inhibition” value is given as -6% and the Z score was determined as 1.13.
For `CN1CCN(CCc2ccc(N[C@H]3CCCN(Cc4ccccc4)C3(C)C)cc2)CC1`, in that order: 29% and -5.85.
For `CN(C(=O)C1CC=CC1)C1(C(N)=O)CCCC1`, in that order: 1% and -0.1.
For `Cc1ccc([C@@H](C)CCN2CCC(N3CCN(CCO)CC3)CC2)o1`, in that order: 4% and -0.93.
Consider `c1cncc(OCCCNC2CCC3(CCNCC3)CC2)c1`, for which the “% Inhibition” value is listed as -1% and the Z score amounted to 0.21.
Take `COc1ccccc1N1CCC(N2CCC(N3CCC(C(=O)NC4CC4)CC3)CC2)CC1`: the “% Inhibition” value is on record as -7% and the Z score turned out to be 1.15.
For `C[C@H](O)CNc1nc2ccccc2n1Cc1cccnc1C(F)(F)F`, in that order: 0% and -0.03.
For `Cc1nc2ccccc2c(O)c1CCC(=O)N1CCC[C@@](O)(CN(C)C)C1`, in that order: -1% and 0.13.
For `CCNC(=O)NC(=O)CN(CC)C[C@H](C)C(=O)OC`, in that order: 1% and -0.3.
Take `Cc1n[nH]nc1C(=O)Nc1ccc2[nH]c(-c3cccc(F)c3)nc2c1`: the “% Inhibition” value turned out to be 1% and the Z score is -0.2.
For `Cc1nc(N2CCC(C(=O)N(C)Cc3cccc4cnccc34)CC2)nc2ccc(C(C)C)cc12`, in that order: 4% and -0.77.
Take `O=C(N[C@@H](Cn1ccnc1)c1ccccc1)c1cc(-c2ccccc2O)n[nH]1`: the “% Inhibition” value stood at 16% and the Z score was -3.26.
Consider `Cc1nnc(-c2cccc(C(=O)OCc3cccc4[nH]ccc34)c2)o1`, for which the “% Inhibition” value stood at 0% and the Z score is reported as -0.01.
For `Cc1nc(N(C)C[C@H]2CCCN(C)C2)c2cc[nH]c2n1`, in that order: 2% and -0.4.
For `CN(C[C@H]1CC(=O)N(C2CCCC2)C1)c1nc(N)c2cnn(C)c2n1`, in that order: -3% and 0.48.
For `Cc1ccc2c(NCc3cc(F)cc(F)c3)c(-c3nc(C4CC4)no3)cnc2n1`, in that order: -6% and 1.16.
Consider `FC(F)(F)CN1CCCN(CCCN2CCCCC2)CC1`, for which the “% Inhibition” value is on record as 0% and the Z score is recorded as -0.08.
For `CCN1CCN(CCN2CC3(CCN(C(=O)[C@H]4CCCN4)CC3)OC2=O)CC1`, in that order: 7% and -1.4.
For `CN1CCC(N(C)C2CCCCC2N(C)C(=O)NC2CCCCNC2)CC1` (stereo unspecified), in that order: -1% and 0.13.
For `COCc1cc(Cl)ccc1NC(=O)NCc1c(C(F)(F)F)cnn1C`, in that order: -7% and 1.02.
Turning to `C1CCN(C2(CNC[C@H]3CCCNC3)CCCC2)CC1`, the “% Inhibition” value was found to be 5% and the Z score is -0.94.
In the case of `CS(=O)(=O)C1(Cn2ccnn2)CCCCC1`, the “% Inhibition” value was found to be 1% and the Z score was -0.13.
Turning to `O=C1CCCN1CC[C@H]1CCCCN1Cc1nc2ccccc2[nH]1`, the “% Inhibition” value was -1% and the Z score is on record as 0.24.
For `Cc1cc(CCNC(=O)c2oc(C(C)C)nc2C)cc(C)c1O`, in that order: -9% and 1.43.
For `c1cn(Cc2ccc(NC[C@@H]3CCCN3)nc2)cn1`, in that order: -14% and 2.72.
For the compound `Cc1[nH]c(=O)sc1S(=O)(=O)N[C@@H](C)c1ccc(F)cc1`, the “% Inhibition” value is -1% and the Z score came out at 0.14.
`c1cc(NCCN2CCCOCC2)c2sccc2n1`: the “% Inhibition” value was 15% and the Z score is given as -2.28.
For `CC[C@@H](C(=O)N(C)Cc1cccc2ncccc12)N1CCOCC1`, in that order: -8% and 1.44.
For `Cc1nc([C@H](C)n2cnc(-c3ccccc3)c2-c2ccc3occc3c2)n[nH]1`, in that order: -2% and 0.46.
`Cn1ccc2c(-c3ccccc3CN3CCNCC3)ccnc21`: the “% Inhibition” value is listed as -7% and the Z score was found to be 1.14.
